# From PubChem BioAssay (Tox21)
# Where “and” joins values, the source holds several entries; their conditions need not be identical. Equal values may be shown once. This list was built around the results that the source calls inconclusive (neither active nor inactive); the mix of calls is not that of the screen. For some assays here: A potency beside an inconclusive call is a rough fit, not a confirmed value. Some compounds were tested as several samples or in several runs, with calls that do not always agree. Calls of active or inactive are those of the source. Unless noted, calls come from the whole dose curve; as a rule, active = well fitted curve in the direction sought with a large enough effect in the repeat runs; inconclusive = weak or mixed curves; inactive = no such curve, though single readings can be large; an effect the other way counts as inactive or inconclusive.
# Columns and labels:
# [1] = target: Luciferin 4-monooxygenase (Photinus pyralis) (UniProt P08659); test: qHTS assay to identify small molecule inhibitors of firefly luciferase (AID 1224835); note: nearly all actives have a fitted effect of over 25% in size; note: potency is the fitted concentration of half-maximal effect; for activity change, negative = inhibition: % is set by controls: 0 for no effect and ±100 for the full control effect
# Chain of UniProt P08659 (P08659 whole entry, looked up): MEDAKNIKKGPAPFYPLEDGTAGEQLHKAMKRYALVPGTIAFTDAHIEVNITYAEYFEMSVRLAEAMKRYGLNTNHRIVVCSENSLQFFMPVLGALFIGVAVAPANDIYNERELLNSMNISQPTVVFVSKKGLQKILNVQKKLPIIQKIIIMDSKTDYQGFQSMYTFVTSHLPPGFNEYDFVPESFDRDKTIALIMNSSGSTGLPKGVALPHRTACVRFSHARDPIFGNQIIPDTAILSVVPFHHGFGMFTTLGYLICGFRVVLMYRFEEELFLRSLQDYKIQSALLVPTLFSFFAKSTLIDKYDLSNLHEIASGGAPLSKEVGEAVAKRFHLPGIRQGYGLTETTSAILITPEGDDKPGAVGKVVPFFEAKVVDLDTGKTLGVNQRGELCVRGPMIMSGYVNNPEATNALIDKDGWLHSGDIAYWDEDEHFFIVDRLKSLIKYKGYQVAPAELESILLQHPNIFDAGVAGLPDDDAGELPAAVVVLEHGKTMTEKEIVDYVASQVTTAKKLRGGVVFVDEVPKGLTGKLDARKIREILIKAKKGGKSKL
# In short: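 Biochemical qHTS: compounds run as interplate titrations against purified firefly enzyme, with D-luciferin and ATP each at its KM concentration. Light output recorded by CCD imaging.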
# [2] = target: Nuclear receptor subfamily 1 group I member 3 (Homo sapiens) (UniProt Q14994); test: qHTS assay to identify small molecule agonists of the constitutive androstane receptor (CAR) signaling pathway (AID 1224839); note: nearly all actives have a fitted effect of over 15% in size; note: potency is the fitted concentration of half-maximal effect;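 for activation: HepG2 cells stably carrying human CAR and a CYP2B6 luciferase reporter; % is set by controls: 0 for no effect and ±100 for the full control effect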
# Chain of UniProt Q14994 (Q14994 whole entry, looked up): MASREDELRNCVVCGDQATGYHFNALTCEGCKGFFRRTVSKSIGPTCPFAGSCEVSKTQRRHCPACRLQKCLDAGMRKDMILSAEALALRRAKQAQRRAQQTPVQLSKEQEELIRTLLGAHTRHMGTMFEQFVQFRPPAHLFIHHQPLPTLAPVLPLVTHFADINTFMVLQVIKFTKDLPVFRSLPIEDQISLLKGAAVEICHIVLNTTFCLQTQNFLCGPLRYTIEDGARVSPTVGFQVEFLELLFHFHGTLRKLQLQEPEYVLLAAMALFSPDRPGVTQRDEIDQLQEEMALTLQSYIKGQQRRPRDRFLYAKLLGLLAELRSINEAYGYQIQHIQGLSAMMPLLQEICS
# In short: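 Stable hCAR/CYP2B6-2.2kb HepG2 line in DMEM with 10% FBS; compounds (15 concentrations) and 0.75 uM PK11195 final, 24 h at 37 C/5% CO2, then ONE-Glo luminescence after 30 min.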
# [3] = qHTS assay to identify small molecule antagonists of the sonic hedgehog signaling (Shh) pathway - cell viability counter screen (AID 1259367); note: nearly all actives have a fitted effect of over 55% in size; note: potency is the fitted concentration of half-maximal effect
# In short: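 Tox21 library chemicals were tested on a Gli1-Luc NIH/3T3 clone (2,000 cells/well) stimulated by conditioned medium; viability was quantified as fluorescence from CellTiter-Fluor reagent added at 23 hr.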
# [4] = target: Peroxisome proliferator-activated receptor gamma (Homo sapiens) (UniProt P37231); test: qHTS assay to identify small molecule agonists of the peroxisome proliferator-activated receptor gamma (PPARg) signaling pathway (AID 743094; active = well fitted activation curve with a large enough effect in the signal ratio in the repeat runs, not every such curve was filed as active; inconclusive = weak or mixed curves, or effect the other way; inactive = no such curve, though single readings can be large or run the other way; the % refers to the signal ratio; note: % is set by controls: 0 for no effect and ±100 for the full control effect); settings: HEK293H PPARg-UAS-bla, beta-lactamase FRET ratio, 17 h; activation: at 57 µM (top of the series) unless noted
# Chain of UniProt P37231 (P37231 whole entry, looked up): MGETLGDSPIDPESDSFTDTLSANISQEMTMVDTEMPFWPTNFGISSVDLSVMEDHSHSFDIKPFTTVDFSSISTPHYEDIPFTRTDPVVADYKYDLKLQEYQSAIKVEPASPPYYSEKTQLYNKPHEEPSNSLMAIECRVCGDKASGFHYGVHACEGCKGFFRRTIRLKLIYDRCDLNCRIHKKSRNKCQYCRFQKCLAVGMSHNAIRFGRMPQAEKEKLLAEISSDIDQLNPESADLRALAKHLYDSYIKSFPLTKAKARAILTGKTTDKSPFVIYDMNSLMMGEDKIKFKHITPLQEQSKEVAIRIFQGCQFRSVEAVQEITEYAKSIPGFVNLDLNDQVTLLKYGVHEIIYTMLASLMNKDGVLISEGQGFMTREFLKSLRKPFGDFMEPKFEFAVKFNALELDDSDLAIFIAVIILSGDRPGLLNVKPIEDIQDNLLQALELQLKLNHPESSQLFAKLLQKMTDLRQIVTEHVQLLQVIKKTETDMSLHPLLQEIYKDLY
# In short: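 HEK293H PPARg-bla cells, 5 h settle at 37C/5% CO2; compound (DMSO) 17 h, 37C; B/G FRET substrate 1 h RT; fluorescence intensity read-out. qHTS format.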
# [5] = target: Nuclear receptor ROR-gamma (Homo sapiens) (UniProt P51449); test: qHTS assay to identify small molecule antagonists of the retinoid-related orphan receptor gamma (ROR-gamma) signaling pathway (AID 1159521; note: nearly all actives have a fitted effect of over 50% in size; note: potency is the fitted concentration of half-maximal effect;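 for activity change, negative = inhibition: CHO cells with doxycycline inducible ROR-gamma driving an RORE luciferase reporter; top concentration of the series differs between compounds; % is set by controls: 0 for no effect and ±100 for the full control effect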)
# In short: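 Readout: ONE-Glo luciferase luminescence, 30 min at room temperature. System: Tet-on RORγ CHO, RORE-LUC. Sequence: compound 2 h, doxycycline 1 uM final, 16 h at 37 C.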
# [6] = qHTS assay to identify small molecule agonists of the sonic hedgehog signaling (Shh) pathway - cell viability counter screen (AID 1259366); note: potency is the fitted concentration of half-maximal effect; nearly all actives have a fitted effect of over 50% in size
# In short: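 Stable Gli1-Luc NIH/3T3 clone, 2,000 cells/well. Compound exposure 24hr at 37C. Read-out: CellTiter-Fluor fluorescence.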
# [7] = qHTS assay to identify small molecule agonists of the farnesoid-X-receptor (FXR) signaling pathway - cell viability counter screen (AID 743218); settings: FXR-bla HEK293T viability, CellTiter-Glo luminescence, 16 h; viability change, negative = cytotoxic: at 62.6 µM (top of the series); note: nearly all actives have a fitted effect of over 45% in size; note: potency is the fitted concentration of half-maximal effect
# In short: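 Luminescence from CellTiter-Glo, read after 30 min at RT, reports viability of GeneBLAzer FXR-UAS-bla HEK 293T cells treated 16 h with compounds in the wells used for the beta-lactamase reporter.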
# [8] = qHTS assay to identify small molecule antagonists of the estrogen receptor beta (ER-beta) signaling pathway - cell viability counter screen (AID 1259382);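 note: HEK293T cells carrying ER-beta-UAS-bla reporter stimulated with estradiol; % is set by controls: 0 for no effect and ±100 for the full control effect; nearly all actives have a fitted effect of over 55% in size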
# In short: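 Luminescent ATP read-out (CellTiter-Glo, 30 min, RT) taken in the same wells as the bla reporter assay. HEK293T ER-beta-UAS-bla cells in 2% charcoal-stripped FBS were exposed to compounds with 1nM E2 for 16 hr at 37C.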
# [9] = qHTS assay for identifying genotoxic compounds that show differential cytotoxicity against isogenic chicken DT40 cell lines with known DNA damage response pathways - Rad54/Ku70 mutant cell line (AID 743015); settings: DT40 Rad54/Ku70 mutant viability, CellTiter-Glo, 40 h; activity change, negative = cytotoxicity: at 66.8 µM (top of the series); note: potency is the fitted concentration of half-maximal effect; nearly all actives have a fitted effect of over 60% in size
# [10] = qHTS assay to identify small molecule antagonists of the peroxisome proliferator-activated receptor gamma (PPARg) signaling pathway - cell viability counter screen (AID 743194); settings: PPARg-bla HEK293H viability, CellTiter-Glo luminescence, 17 h; Potency: co-treated with 50 nM rosiglitazone unless noted; activity change, negative = cytotoxicity: at 62.6 µM (top of the series), co-treated with 50 nM rosiglitazone unless noted; note: nearly all actives have a fitted effect of over 55% in size; note: potency is the fitted concentration of half-maximal effect
# In short: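 Cytotoxicity counter screen in PPARg-bla HEK293H cells, same wells as reporter assay. Compounds plus 50 nM rosiglitazone (final) for 17 h at 37 C, then viability read by CellTiter-Glo luminescence.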
# [11] = A CellTox Green Cytotoxicity Assay to monitor cytotoxicity in HepG2 cells - 40 hour (AID 1224879); note: nearly all actives have a fitted effect of over 40% in size; note: potency is the fitted concentration of half-maximal effect
# In short: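 HepG2, 600 cells/well premixed w/ CellTox Green; 5 h settle, 37 C/5% CO2; pintool cpd add (DMSO); 37 C, 40 h; fluorescence read at 0, 8, 16, 24, 32, 40 h.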
# [12] = qHTS assay to identify small molecule antagonists of the estrogen related receptor signaling pathway with the pleiotropic PPARgamma coactivator (PGC) from Tox21 10K library (AID 1224841; call rule not given here; note: potency is the fitted concentration of half-maximal effect; actives are mostly falling curves and most rising ones were filed inactive; nearly all actives have a fitted effect of over 50% in size)
# In short: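 Luminescence read-out (One-Glo luciferase reagent, 30 min at room temperature) from PGC/ERR cells exposed to DMSO-dissolved test compounds for 18 h at 37 C; cells, 2,000 per well, had been preincubated 6 h before compound transfer.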
# [13] = A CellTox Green Cytotoxicity Assay to monitor cytotoxicity in HEK293 cells - 40 hour (AID 1224871); note: nearly all actives have a fitted effect of over 45% in size; note: potency is the fitted concentration of half-maximal effect
# In short: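 Read-out: fluorescence of a cell-impermeant cyanine dye staining DNA of dead cells, proportional to cytotoxicity. HEK293, 600 cells/well with reagent, compound (23 nL DMSO) added after 5 h; reads at 0, 8, 16, 24, 32, 40 h.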
# [14] = qHTS RealTime-Glo MT Cell Viability Assay in HEK293 cells - 8 hour (AID 1224887); note: nearly all actives have a fitted effect of over 50% in size; note: potency is the fitted concentration of half-maximal effect
# In short: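 Luminescence readout at each listed time point; HEK293, 600 cells/well, RealTime-Glo MT reagent added with cells; compounds pinned (23 nL in DMSO) after 5 h at 37 C; continuous culture at 37 C.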
# [15] = target: Thyrotropin receptor (Homo sapiens) (UniProt P16473); test: qHTS assay to identify small molecule antagonists of the thyroid stimulating hormone receptor (TSHR) signaling pathway (AID 1259385; calls by dose curve; note: nearly all actives have a fitted effect of over 20% in size; note: potency is the fitted concentration of half-maximal effect); settings: TSHR-HEK293 cAMP HTRF, TSH-stimulated antagonist mode; activity change, negative = inhibition: at 92.4 µM (top of the series)
# Chain of UniProt P16473 (P16473 whole entry, looked up): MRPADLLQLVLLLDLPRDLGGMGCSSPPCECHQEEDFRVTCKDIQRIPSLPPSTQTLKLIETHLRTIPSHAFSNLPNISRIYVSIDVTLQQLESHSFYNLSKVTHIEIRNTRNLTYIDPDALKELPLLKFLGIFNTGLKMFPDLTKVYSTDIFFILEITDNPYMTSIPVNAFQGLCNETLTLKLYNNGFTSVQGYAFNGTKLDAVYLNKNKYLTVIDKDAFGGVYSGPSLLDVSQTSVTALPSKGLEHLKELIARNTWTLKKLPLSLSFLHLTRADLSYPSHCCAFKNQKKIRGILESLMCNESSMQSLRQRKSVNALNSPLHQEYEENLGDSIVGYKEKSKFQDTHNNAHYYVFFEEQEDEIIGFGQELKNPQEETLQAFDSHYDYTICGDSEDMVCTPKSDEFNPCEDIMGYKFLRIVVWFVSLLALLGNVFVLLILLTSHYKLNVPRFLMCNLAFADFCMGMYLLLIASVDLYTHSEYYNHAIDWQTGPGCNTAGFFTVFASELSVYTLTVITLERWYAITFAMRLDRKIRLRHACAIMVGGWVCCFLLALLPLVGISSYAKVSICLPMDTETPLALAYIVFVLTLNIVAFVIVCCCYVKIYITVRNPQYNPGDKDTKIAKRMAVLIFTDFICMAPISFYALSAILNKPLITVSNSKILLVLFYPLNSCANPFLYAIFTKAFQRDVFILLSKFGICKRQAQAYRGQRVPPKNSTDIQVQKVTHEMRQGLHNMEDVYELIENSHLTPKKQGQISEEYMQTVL
# In short: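 TSHR-HEK293 cells (800/well) plated 18 h, then compounds with Ro20-1724 and TSH at 1.5 ng/mL final, 30 min at room temperature. cAMP quantified by HTRF (cAMP-d2/anti-cAMP-cryptate, 1 h); 15 concentrations in triplicate.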
# [16] = Human pregnane X receptor (PXR) small molecule agonists, qHTS cell viability counter screen (AID 1346977); note: nearly all actives have a fitted effect of over 50% in size; note: potency is the fitted concentration of half-maximal effect
# In short: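 HepG2 cells stably carrying the PXR-Luc reporter are cultured with 5% charcoal-stripped FBS and treated with compounds for 24hr. CellTiter-Fluor is added at 23hr and fluorescence is read after 1hr.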
# [17] = Caspase-3/7 induction in HepG2 cells by small molecules, qHTS cell viability counter screen (AID 1346981); note: % is set by controls: 0 for no effect and ±100 for the full control effect; nearly all actives have a fitted effect of over 30% in size
# In short: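 Fluorescence read-out of live-cell protease activity (CellTiter-Fluor) after 1 hr with reagent. This was measured in the same wells as the caspase-3/7 luminescence, on HepG2 cells exposed to DMSO-dissolved compounds for 16 hr at 37 C.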
# [18] = qHTS assay to identify small molecule agonists of the peroxisome proliferator-activated receptor delta (PPARd) signaling pathway - cell viability counter screen (AID 743211); settings: PPARd-bla HEK293H viability, CellTiter-Glo luminescence, 17 h; activity change, negative = cytotoxicity: at 62.6 µM (top of the series); note: % is set by controls: 0 for no effect and ±100 for the full control effect; nearly all actives have a fitted effect of over 55% in size
# In short: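 Multiplexed format: after the 2 h room-temperature LiveBLAzer B/G FRET step, CellTiter-Glo was added to the same wells. Luminescence after 30 min gave cell viability; compound exposure was 17 h at 37C.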
# [19] = qHTS assay to identify small molecule antagonists of the estrogen receptor alpha (ER-alpha) signaling pathway using the BG1 cell line (AID 743080; calls by dose curve;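 note: BG1 cells stimulated with 17beta-estradiol alongside compound; % is set by controls: 0 for no effect and ±100 for the full control effect; nearly all actives have a fitted effect of over 25% in size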); settings: BG1Luc4E2 ERE-luciferase antagonist mode, luminescence; activity change, negative = inhibition: at 70.3 µM (top of the series) unless noted
# In short: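 After 5 days in phenol-red-free 10% charcoal-stripped FBS medium, BG1-Luc-4E2 cells were seeded, left 24 h at 37 C, co-treated with compounds and 17beta-estradiol for 21.5 h, then assayed for viability and luciferase.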
# Tags give direction and shape of the fitted curve.
smiles,measurement,setting,value
Cc1ccc2nc3sc(=O)sc3nc2c1,Potency,[1],"inconclusive: 8.49 µM [inhibitor, full curve, poor fit]"
same,activation,[2],inactive: 7.43% [at 19 µM]
same,Potency,[3],"inconclusive: 14.6 µM [cytotoxic, single point]"
CNC(=O)Oc1ccccc1OC(C)C,Potency,[4],inactive
same,Potency,[5],"inconclusive: 0.0109 µM [inhibitor, full curve, poor fit]"
same,Potency,[2],"inconclusive: 61.2 µM [activator, partial curve] and inactive"
same,Potency,[6],"inconclusive: 27.3 µM [cytotoxic, partial curve, poor fit]"
same,Potency,[3],"inconclusive: 61.1 µM [cytotoxic, single point]"
CC1=NNC(=O)N(/N=C/c2cccnc2)C1,Potency,[7],"inconclusive: 0.389 µM [rising, full curve, poor fit]"
same,Potency,[1],inactive
CCN(CC)C(C)C(=O)c1ccccc1 (centres undefined),Potency,[5],"inconclusive: 1.19 µM [inhibitor, single point]"
same,Potency,[8],inactive
CNC(=O)Oc1cc(C)c(N(C)C)c(C)c1,Potency,[9],"inconclusive: 68.6 µM [cytotoxic, single point]"
same,Potency,[5],inactive
same,Potency,[3],"inconclusive: 19.3 µM [cytotoxic, partial curve, poor fit]"
CC(C1CC1)C(O)(Cn1cncn1)c1ccc(Cl)cc1 (centres undefined),Potency,[9],"inconclusive: 19.2 µM [cytotoxic, partial curve, poor fit]"
same,Potency,[10],inactive
same,Potency,[7],"inconclusive: 0.0014 µM [rising, full curve, poor fit]"
same,Potency,[5],inactive
same,Potency,[11],inactive
O=C1C=CC(=O)c2ccccc21,Potency,[12],active: 34.4 µM
same,Potency,[13],active: 3.89 µM
same,Potency,[11],active: 12.3 µM
same,Potency,[14],active: 6.16 µM
same,Potency,[15],"inconclusive: 54.5 µM [falling, partial curve]"
N#CC(Cl)(Cl)Cl,Potency,[4],inactive
same,Potency,[7],"inconclusive: 0.0301 µM [rising, full curve, poor fit]"
same,Potency,[5],"inconclusive: 8.42 µM [inhibitor, full curve, poor fit]"
same,Potency,[3],inactive
CNC(=O)CSP(=S)(OC)OC,Potency,[9],"inconclusive: 54.4 µM [cytotoxic, single point]"
same,Potency,[10],inactive
same,Potency,[7],"inconclusive: 0.0504 µM [rising, full curve, poor fit]"
same,Potency,[5],"inconclusive: 0.0769 µM [inhibitor, single point]"
same,Potency,[1],"inconclusive: 65.1 µM [inhibitor, partial curve] and inconclusive: 100 µM [inhibitor, single point]"
same,Potency,[6],"inconclusive: 70.5 µM [cytotoxic, single point]"
same,Potency,[3],active: 28.1 µM
same,Potency,[16],"inconclusive: 50.1 µM [cytotoxic, partial curve]"
OCC(Br)CBr (centres undefined),Potency,[5],"inconclusive: 0.22 µM [inhibitor, full curve, poor fit]"
same,Potency,[17],inactive
O=C1CCCN1,Potency,[10],"inconclusive: 4.95 µM [rising, partial curve, poor fit]"
same,Potency,[7],inactive
same,Potency,[5],"inconclusive: 49.1 µM [inhibitor, partial curve, poor fit]"
same,Potency,[14],inactive
COC1=CC(=O)O[C@@H](/C=C/c2ccc3c(c2)OCO3)C1,Potency,[5],inactive
same,Potency,[8],inactive
O=S(=O)(NS(=O)(=O)C(F)(F)F)C(F)(F)F,Potency,[18],inactive
same,Potency,[1],"inconclusive: 79.4 µM [inhibitor, partial curve]"
same,Potency,[13],"inconclusive: 48.9 µM [activator, single point]"
CC(Cl)(Cl)[N+](=O)[O-],Potency,[10],inactive
same,Potency,[7],inactive
same,Potency,[5],"inconclusive: 26.4 µM [inhibitor, single point]"
same,Potency,[15],inactive
CC(=O)[C@H]1CC[C@H]2[C@@H]3CC[C@H]4C[C@H](O)CC[C@]4(C)[C@H]3C(=O)C[C@]12C,Potency,[5],"inconclusive: 33.5 µM [inhibitor, single point]"
same,Potency,[12],"inconclusive: 21.1 µM [falling, partial curve]"
same,Potency,[13],inactive
CN(C)CCN(C)C,Potency,[19],inactive
same,Potency,[18],inactive
same,Potency,[5],inactive
same,Potency,[16],inactive
